# Assay results taken from ChEMBL document CHEMBL4888484, “Replenishing the malaria drug discovery pipeline: Screening and hit evaluation of the MMV Hit Generation Library 1 (HGL1) against asexual blood stage Plasmodium falciparum ,using a nano luciferase reporter read-out” (2022).
# Out of some 4,800 compounds screened, about 420 (8.8%) showed an effect of 50% or more. Some of the results follow. Where a SMILES comes first, the peptide text is derived from it. The star is where a group is joined. NHPhenethyl = c1ccc(CCN*)cc1
# System: Plasmodium falciparum
# Test: Confirmatory screen in NF54 nanoGlo assay, in single point, at 2uM, 72h
# Type: functional, Erythrocyte
# Settings: timepoint 72 hour
row,SMILES,% Inhibition
1,Cc1csc([C@@H](C#N)C(=O)c2ccncc2)n1,-11%
2,NC(=O)c1ccc(NC(=O)N2CCc3c(F)ccc(F)c3C2)c(F)c1,-12%
3,Cc1cc(=O)n(Cc2ccccc2)c2c(C)cccc12,1%
4,Cc1ccc(Nc2ccc(N3CCNCC3)nn2)nc1,35%
5,Cc1ccccc1N1CCN(C(=O)c2ccc3ncccc3c2)CC1,-4%
6,CNc1nc(C)cc(C(=O)Nc2ccnn2C[C@H]2CCOC2)n1,-8%
7,Cc1cc(NC(=O)C(C)N2CCOC(c3nc(C(C)C)n[nH]3)C2)on1 (stereo unspecified),0%
8,COc1cccc(CNC(=O)[C@H]2CCCN(c3nc4cccnc4n(C)c3=O)C2)c1OC,-1%
9,C=C1C(C)C2C(Cc3c[nH]c4ccccc34)NC(=O)C23C(=O)CC(O)C(O)CC(C)C/C=C/C3C1O (stereo unspecified),44%
10,Cc1ccccc1N1C(O)=Nc2ccccc2S1(=O)=O,-12%
11,O=C(Nc1cnc2ccccc2c1)c1ccccc1C(=O)c1ccc(F)cc1,96%
12,CC1(C)N=C(c2ccc(C(C)(C)C)cc2)C(=O)N1,2%
13,O=C(CN1CCC[C@H](O)C1)NCC1(N2CCOCC2)CCCCC1,-14%
14,N#Cc1cc(Br)cc(Cl)c1O,0%
15,Cn1c(=O)c2c(nc3nc(N4CCOCC4)n(CC(=O)c4ccc(Cl)cc4)n32)n(C)c1=O,-4%
16,CC(N)C(=O)NC(C)C(=O)NCCc1ccccc1 (stereo not drawn) (H-Ala-Ala-NHPhenethyl; configuration not given here),-5%
17,Cc1cccc(CN(Cc2ccccn2)C(=O)Cn2c(C)cc(O)cc2=O)c1,3%
18,Cc1ccc(S(=O)(=O)N2C[C@@H]3CCCN3c3ccc(C(F)(F)F)cc32)cc1,-15%
19,COc1cc(N)ccc1OCC(F)F,2%
20,O=C(c1ccccc1)c1ccc2n1CC[C@H]2C(=O)Nc1ccccc1C(F)(F)F,6%
21,Cc1nc([C@H](C)NC(=O)c2ccc(S(C)(=O)=O)cc2)cs1,3%
22,Nc1nccnc1C(=O)N(Cc1ccccc1)C[C@]1(O)CCc2ccccc21,-9%
23,COc1ccc(Nc2nnc(-c3ccc(NC(=O)C(=O)NCCCn4ccnc4)cc3)s2)cc1,56%
24,Cc1nnc(-c2ccc3ccn(CC(=O)Nc4ccc(F)c(Cl)c4)c3c2)o1,78%
25,COc1nc(NC2CCS(=O)(=O)CC2)ncc1F,75%
26,Cc1noc(NCc2ccc(Cl)cc2)n1,39%

row,SMILES,% Inhibition
1,CC1(C)COCCN1C(=O)Cc1cnn(-c2ccccc2)n1,1%
2,CC(C)CC(=O)Nc1ccc2c(c1)C(N1CCC(C)CC1)=Nc1ccccc1O2,0%
3,Cc1cnc(NC(=O)c2ccc3ncoc3c2)c(Br)c1,4%
4,Nc1c(-c2ccccc2)nsc1C(=O)NCCc1cccs1,-5%
5,CC1(C)NC(=O)N(CNc2ccc(Br)cc2)C1=O,-14%
6,Cc1noc(C)c1NS(=O)(=O)c1ccc2c(c1)OCCCO2,1%
7,CC(C)(C)OC(=O)CN(c1cc(F)cc(F)c1)S(=O)(=O)c1ccc2nncn2c1,-7%
8,Cc1cc(NC(=O)[C@@H](c2ccccc2)N2CCCCC2=O)sn1,7%
9,CCC(C(=O)Nc1ccc2c(c1)CN(CCc1ccc(OC)c(OC)c1)C(=O)C(C)O2)c1ccccc1 (stereo unspecified),94%
10,Cc1c(C(c2ccc(-c3ccccc3Cl)o2)c2c(C)n(C)n(-c3ccccc3)c2=O)c(=O)n(-c2ccccc2)n1C,3%
11,O=C(NCCN1CCCCC1)c1cn2ccnc(-c3ccccc3)c2n1,-1%
12,CCOc1ccc(-c2cc(NC(=O)c3cc(-c4cccnc4)nc4ccccc34)on2)cc1OCC,94%
13,Cc1c(-c2ccc(F)cc2)[nH]c2ccc(CNc3nccc(N(C)C)n3)cc12,29%
14,C[C@H](NS(C)(=O)=O)C(=O)NC(C)(C)Cc1ccccc1Cl,-5%
15,COc1ccc(NC(=O)[C@@H](c2ccc(OC)c(OC)c2)N(Cc2ccccc2)C(=O)Cn2nnc3ccccc32)cc1,-11%
16,COc1ccc(CC(=O)Nc2cc(C)n(-c3cccc(Cl)c3)n2)cc1,81%
17,C[C@H](NC(=O)c1ccc(Cl)o1)c1nnc2n1CCCCC2,-5%
18,CCN(CC(=O)Nc1ccccc1OC)C(=O)c1ccc(S(=O)(=O)N2CCOCC2)cc1,10%
19,CCCS(=O)(=O)NC1CCC2(CC1)OCCO2,-11%
20,Cc1ccnc(N(C(=O)c2cc(Cl)ccc2Cl)C(=O)c2cc(Cl)ccc2Cl)c1,-9%
21,CCCC1(c2ccncc2)CC(C)OC1=O (stereo unspecified),-1%
22,Cc1cnc(CC[C@H]2CCCN2C(=O)CCCc2ccccc2)n1C,-6%
23,CCOC(=O)Nc1nc(-c2ccccc2)c(C(=O)c2ccc(S(C)(=O)=O)cc2)s1,6%
24,CNC(=O)[C@@H]1C[C@H](NCc2cc(OC)c(OC)c(OC)c2)CN1CC(c1ccccc1)c1ccccc1,63%
25,Cc1cccc(Cn2ccc(-c3cccc(OCc4ccc(Cl)cc4Cl)c3)n2)c1,-4%
